In the supplement of paper PMC8728848:
The list shows a part of the results.

Columns and labels:
Assay in all cases: glycan array binding signal (z-score within array); higher = stronger binding
Details in all cases: glycan notation: IUPAC condensed, linker removed
[1] = biological target: Neu5Ac(a2-3)Gal(b1-4)GlcNAc(b1-6)GalNAc
Procedure, shortened: (§1)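 Negative Z-scores can be read as non-binding. The Z-score is calculated within each array and then averaged across arrays of one protein sequence at different concentrations or buffers and across linkers. Arrays, 3228 in all, were curated from the Consortium for Functional Glycomics database and kept only where the protein sequence was available.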

[2] = biological target: Neu5Ac(a2-3)Gal(b1-4)GlcNAc(b1-6)[Gal(b1-3)]GalNAc
Procedure, shortened: as §1

[3] = biological target: Neu5Ac(a2-3)Gal(b1-4)GlcNAc(b1-6)[Neu5Ac(a2-3)Gal(b1-3)]GalNAc
Procedure, shortened: as §1

[4] = biological target: Neu5Ac(a2-3)Gal(b1-4)GlcNAc6S
Procedure, shortened: as §1

[5] = biological target: Neu5Ac(a2-3)Gal(b1-4)[Fuc(a1-3)]GlcNAc
Procedure, shortened: as §1

[6] = biological target: Neu5Ac(a2-3)Gal(b1-4)[Fuc(a1-3)]GlcNAc(b1-2)Man
Procedure, shortened: as §1

[7] = biological target: Neu5Ac(a2-3)Gal(b1-4)[Fuc(a1-3)]GlcNAc(b1-3)Gal
Procedure, shortened: as §1

[8] = biological target: Neu5Ac(a2-3)Gal(b1-4)[Fuc(a1-3)]GlcNAc(b1-3)Gal(b1-4)GlcNAc
Procedure, shortened: as §1

[9] = biological target: Neu5Ac(a2-3)Gal(b1-4)[Fuc(a1-3)]GlcNAc(b1-3)Gal(b1-4)[Fuc(a1-3)]GlcNAc(b1-3)Gal(b1-4)[Fuc(a1-3)]GlcNAc
Procedure, shortened: as §1

[10] = biological target: Neu5Ac(a2-3)Gal(b1-4)[Fuc(a1-3)]GlcNAc(b1-3)GalNAc
Procedure, shortened: as §1

[11] = biological target: Neu5Ac(a2-3)Gal(b1-4)[Fuc(a1-3)]GlcNAc(b1-6)[Gal(b1-3)]GalNAc
Procedure, shortened: as §1

[12] = biological target: Neu5Ac(a2-3)Gal(b1-4)[Fuc(a1-3)]GlcNAc(b1-6)[Neu5Ac(a2-3)Gal(b1-3)]GalNAc
Procedure, shortened: as §1

[13] = biological target: Neu5Ac(a2-3)Gal(b1-4)[Fuc(a1-3)]GlcNAc6S
Procedure, shortened: as §1

[14] = biological target: Neu5Ac(a2-3)Gal6S(b1-4)GlcNAc
Procedure, shortened: as §1

[15] = biological target: Neu5Ac(a2-3)Gal6S(b1-4)[Fuc(a1-3)]GlcNAc
Procedure, shortened: as §1

Neu5Ac(a2-3)GalNAc = biological target: Neu5Ac(a2-3)GalNAc
Procedure, shortened: as §1

[16] = biological target: Neu5Ac(a2-3)GalNAc(b1-4)GlcNAc
Procedure, shortened: as §1

[17] = biological target: Neu5Ac(a2-3)[GalNAc(b1-4)]Gal(b1-4)Glc
Procedure, shortened: as §1

[18] = biological target: Neu5Ac(a2-3)[GalNAc(b1-4)]Gal(b1-4)GlcNAc
Procedure, shortened: as §1

[19] = biological target: Neu5Ac(a2-3)[GalNAc(b1-4)]Gal(b1-4)GlcNAc(b1-3)GalNAc
Procedure, shortened: as §1

[20] = biological target: Neu5Ac(a2-3)[Neu5Ac(a2-6)]GalNAc
Procedure, shortened: as §1

Neu5Ac(a2-6)Gal = biological target: Neu5Ac(a2-6)Gal
Procedure, shortened: as §1

[21] = biological target: Neu5Ac(a2-6)Gal(b1-3)GlcNAc(b1-3)[Gal(b1-4)GlcNAc(b1-6)]Gal(b1-4)Glc
Procedure, shortened: as §1

Neu5Ac(a2-6)Gal(b1-4)Glc = biological target: Neu5Ac(a2-6)Gal(b1-4)Glc
Procedure, shortened: as §1

[22] = biological target: Neu5Ac(a2-6)Gal(b1-4)GlcNAc
Procedure, shortened: as §1

[23] = biological target: Neu5Ac(a2-6)Gal(b1-4)GlcNAc(b1-2)Man
Procedure, shortened: as §1

[24] = biological target: Neu5Ac(a2-6)Gal(b1-4)GlcNAc(b1-2)Man(a1-3)Man(b1-4)GlcNAc(b1-4)GlcNAc
Procedure, shortened: as §1

[25] = biological target: Neu5Ac(a2-6)Gal(b1-4)GlcNAc(b1-2)Man(a1-3)[Gal(b1-4)GlcNAc(b1-2)Man(a1-6)]Man(b1-4)GlcNAc(b1-4)GlcNAc
Procedure, shortened: as §1

[26] = biological target: Neu5Ac(a2-6)Gal(b1-4)GlcNAc(b1-2)Man(a1-3)[GlcNAc(b1-4)][Neu5Ac(a2-6)Gal(b1-4)GlcNAc(b1-2)Man(a1-6)]Man(b1-4)GlcNAc(b1-4)GlcNAc
Procedure, shortened: as §1

[27] = biological target: Neu5Ac(a2-6)Gal(b1-4)GlcNAc(b1-2)Man(a1-3)[Man(a1-6)]Man(b1-4)GlcNAc(b1-4)GlcNAc
Procedure, shortened: as §1

B1: RBMC2 (Vibrio cholerae) (protein)
chain: KISVRSGFAIDAIGASASTLVGGTGGNLNAAVNVKDIKAIDLTWGKYYWGGYHLLALDFRMSNGSVISMGSKNYAYSKQTERFTVPAGSRIKGIKAWTAGWLLDGVQFELA
glycan array binding signal (z-score) [1]: -0.363 | glycan array binding signal (z-score) [2]: -0.171 | glycan array binding signal (z-score) [3]: -0.331 | glycan array binding signal (z-score) [4]: -0.318 | glycan array binding signal (z-score) [5]: -0.409 | glycan array binding signal (z-score) [6]: -0.221 | glycan array binding signal (z-score) [7]: -0.435 | glycan array binding signal (z-score) [8]: -0.184 | glycan array binding signal (z-score) [9]: -0.352 | glycan array binding signal (z-score) [10]: -0.389 | glycan array binding signal (z-score) [11]: -0.238 | glycan array binding signal (z-score) [12]: -0.025 | glycan array binding signal (z-score) [13]: -0.203 | glycan array binding signal (z-score) [14]: -0.251 | glycan array binding signal (z-score) [15]: -0.474 | glycan array binding signal (z-score) (Neu5Ac(a2-3)GalNAc): 0.039 | glycan array binding signal (z-score) [16]: -0.3 | glycan array binding signal (z-score) [17]: -0.352 | glycan array binding signal (z-score) [18]: -0.404 | glycan array binding signal (z-score) [19]: -0.2 | glycan array binding signal (z-score) [20]: -0.245 | glycan array binding signal (z-score) (Neu5Ac(a2-6)Gal): -0.4 | glycan array binding signal (z-score) [21]: -0.431 | glycan array binding signal (z-score) (Neu5Ac(a2-6)Gal(b1-4)Glc): -0.368 | glycan array binding signal (z-score) [22]: -0.313 | glycan array binding signal (z-score) [23]: -0.356 | glycan array binding signal (z-score) [24]: -0.132 | glycan array binding signal (z-score) [25]: -0.285 | glycan array binding signal (z-score) [26]: -0.252 | glycan array binding signal (z-score) [27]: 12.3
